Measurements: the antibiotic and cytotoxicity screens of Wong et al. (2023)
The list shows a part of the results.

Each molecule was assayed on HepG2 (assay: cytotoxicity call (relative viability < 0.9)). Conditions: 10 µM.

Compound	cytotoxicity call
CC(=O)N(C)C[C@H]1Oc2ncc(C#C[C@H](C)O)cc2C(=O)N([C@H](C)CO)C[C@@H]1C	inactive
COc1cc2c(cc1OC)CN(C(=O)[C@H]1[C@@H]3C(=O)O[C@@H](c4ccccc4)[C@@H](c4ccccc4)N3[C@@H](c3ccc(O)cc3)[C@]13C(=O)Nc1ccc(C#CC4(O)CCCCCC4)cc13)CC2	inactive
Cc1ccc(S(=O)(=O)N(C)C[C@@H]2Oc3c(NC(=O)C4CCOCC4)cccc3C(=O)N([C@H](C)CO)C[C@@H]2C)cc1	inactive
O=C(O)c1cncc(C(=O)O)c1	inactive
COc1ccc(CN(C)C[C@@H]2Oc3c(NC(=O)Nc4ccc(C(F)(F)F)cc4)cccc3C(=O)N([C@H](C)CO)C[C@H]2C)cc1	inactive
Cc1noc(C)c1S(=O)(=O)Nc1cccc2c1O[C@@H](CN(C)CC1CC1)[C@@H](C)CN([C@@H](C)CO)C2=O	inactive
Nc1cnc2ncc(N)cc2c1	inactive
CN(Cc1ccc(/C=C/C(=O)Nc2ccc(-c3cccs3)cc2N)cc1)CC12CC3CC(CC(C3)C1)C2	inactive
CC(=O)NC1C(O)CC(O)(C(=O)O)OC1C(O)C(O)CO (stereo unspecified)	inactive
COc1ccc(C(=O)Nc2cccc(CN3C(=O)[C@@]4(O[C@@H](CC(=O)N5Cc6ccccc6C[C@H]5CO)[C@H]([Si](C)(C)c5ccc(OC)cc5)[C@H]4C)c4ccccc43)c2)cc1	active
COc1ccc(CN(C)C[C@@H]2OCCCC[C@@H](C)Oc3ccc(NC(=O)Nc4ccc(F)cc4)cc3C(=O)N([C@H](C)CO)C[C@H]2C)cc1	active
